Measured values reported in the antibiotic and cytotoxicity screens of Wong et al. (2023).
This is one part of the list.

Key:
HSkMC = human skeletal muscle cells; assay: cytotoxicity call (relative viability < 0.9); details: 10 µM
HepG2 = assay: cytotoxicity call (relative viability < 0.9); details: 10 µM
S. aureus RN4220 = assay: growth inhibition call (relative growth <= 0.2); details: 50 µM

Compound	cytotoxicity call (HSkMC)	cytotoxicity call (HepG2)	growth inhibition call (S. aureus RN4220)
O=C(C[C@H]1CC[C@@H]2[C@H](COC[C@H](O)CN2C(=O)c2cccnc2)O1)NCc1ccc(-c2ccccc2)cc1	inactive	inactive	inactive
C[C@H](O)C#Cc1cnc2c(c1)C(=O)N([C@H](C)CO)C[C@H](C)[C@@H](CN(C)C(=O)Nc1ccc(C(F)(F)F)cc1)O2	inactive	inactive	inactive
C[C@H](CO)N1C[C@H](C)[C@@H](CN(C)C(=O)CCN2CCCCC2)Oc2ncc(C#Cc3ccccn3)cc2C1=O	inactive	inactive	inactive
Cc1ccc(S(=O)(=O)Nc2ccc3c(c2)C(=O)N([C@@H](C)CO)C[C@H](C)[C@H](CN(C)Cc2ccc(C(F)(F)F)cc2)OCCCC[C@@H](C)O3)cc1	inactive	inactive	inactive
CO[C@H]1CN(C)C(=O)c2ccc(NS(=O)(=O)CC(F)(F)F)cc2OC[C@@H](C)N(C(=O)NC(C)C)C[C@H]1C	inactive	inactive	inactive
C[C@@H]1CCCCO[C@@H](CN(C)C(=O)Nc2cccc3ccccc23)[C@H](C)CN([C@H](C)CO)C(=O)c2cc(NC(=O)Cc3ccccc3)ccc2O1	inactive	inactive	inactive
C[C@H]1CN([C@@H](C)CO)C(=O)c2cc(C#Cc3cccnc3)cnc2O[C@H]1CN(C)S(C)(=O)=O	inactive	inactive	inactive
C[C@H](CO)N1C[C@H](C)[C@@H](CN(C)C(=O)Nc2cccc3ccccc23)OCCCC[C@H](C)Oc2ccc(NS(=O)(=O)c3cn(C)cn3)cc2C1=O	inactive	inactive	inactive
COc1cccc(NC(=O)N(C)C[C@H]2Oc3cc(C#Cc4ccncc4)ccc3S(=O)(=O)N([C@@H](C)CO)C[C@@H]2C)c1	active	active	inactive
Cc1ccc(S(=O)(=O)N(C)C[C@@H]2Oc3c(NS(=O)(=O)c4cccs4)cccc3C(=O)N([C@@H](C)CO)C[C@@H]2C)cc1	inactive	inactive	inactive
CSCCC(NC(=O)C(Cc1c[nH]c2ccccc12)NC(=O)CCNC(=O)OC(C)(C)C)C(=O)NC(CC(=O)O)C(=O)NC(Cc1ccccc1)C(N)=O (configuration not stated)	inactive	inactive	inactive
CO[C@@H]1CN(C)C(=O)c2cc(NC(=O)Nc3cccc(Cl)c3)ccc2OC[C@H](C)N(C(=O)Nc2c(C)noc2C)C[C@@H]1C	inactive	inactive	inactive
C[C@@H]1CCCCO[C@@H](CN(C)S(=O)(=O)c2ccccc2)[C@H](C)CN([C@H](C)CO)C(=O)c2cc(NC(=O)NC3CCCCC3)ccc2O1	inactive	inactive	inactive
Cc1noc(C)c1S(=O)(=O)Nc1cccc2c1O[C@H](CN(C)Cc1ccc(Oc3ccccc3)cc1)[C@H](C)CN([C@@H](C)CO)C2=O	inactive	inactive	inactive
C[C@H](CO)N1C[C@H](C)[C@H](CN(C)C(=O)CN(C)C)Oc2cc(-c3cncnc3)ccc2S1(=O)=O	inactive	inactive	inactive
CC(=O)NCCCC[C@@H]1NC(=O)[C@H]2C[C@@H](C(=O)O)[C@@H](c3ccc(O)cc3)N2C1=O	inactive	inactive	inactive
COc1ccccc1CNC(=O)C[C@H]1C[C@@H]2c3cc(NC(=O)NC4CCCC4)ccc3O[C@@H]2[C@H](CO)O1	inactive	inactive	inactive
C[C@H](CO)N1C[C@H](C)[C@@H](CN(C)S(C)(=O)=O)OCc2cn(nn2)CCCC1=O	inactive	inactive	inactive
Cc1ccc(S(=O)(=O)N(C)C[C@H]2Oc3ccc(NC(=O)CCCN(C)C)cc3CC(=O)N([C@@H](C)CO)C[C@@H]2C)cc1	inactive	inactive	inactive
CO[C@H](CN(C)C(=O)C1CCOCC1)[C@H](C)CN(C(=O)Nc1ccc(C(F)(F)F)cc1)[C@@H](C)CO	inactive	inactive	active
C=CC[C@H](CC(=O)NCCO)C(=O)N[C@H](COC(=O)[C@H](CC=C)CC(=O)OC(C)(C)C)c1ccccc1	inactive	inactive	inactive
C[C@@H]1CN([C@@H](C)CO)C(=O)c2cc(NS(=O)(=O)c3cn(C)cn3)ccc2O[C@@H]1CN(C)S(=O)(=O)c1ccccc1	inactive	inactive	inactive
CNC(=O)CN1CCO[C@@H]2CN(Cc3nccs3)C[C@@H]21	inactive	inactive	inactive
C[C@H](CO)N1C[C@H](C)[C@H](CN(C)C(=O)Nc2cccc3ccccc23)Oc2ccc(NS(=O)(=O)c3cccs3)cc2C1=O	inactive	inactive	inactive
C[C@@H]1CCCCO[C@H](CN(C)C(=O)c2ccncc2)[C@H](C)CN([C@@H](C)CO)C(=O)c2cc(NC(=O)C3CCCCC3)ccc2O1	inactive	inactive	inactive
Cc1ccc(S(=O)(=O)Nc2ccc3c(c2)C(=O)N([C@H](C)CO)C[C@@H](C)[C@@H](CN(C)CC2CCCCC2)OCCCC[C@H](C)O3)cc1	inactive	active	inactive
CN(C)C(=O)N1C[C@@H]2[C@@H](C1)C(=O)N(C)C21CCN(S(C)(=O)=O)CC1	inactive	inactive	inactive

Compound	cytotoxicity call (HSkMC)	cytotoxicity call (HepG2)	growth inhibition call (S. aureus RN4220)
Cc1ccc(S(=O)(=O)Nc2ccc3c(c2)C(=O)N([C@H](C)CO)C[C@H](C)[C@H](CN(C)C(=O)Nc2ccc4c(c2)OCO4)OCCCC[C@H](C)O3)cc1	inactive	active	inactive
COc1ccccc1S(=O)(=O)N(C)C[C@H]1Oc2cc(Br)ccc2S(=O)(=O)N([C@H](C)CO)C[C@H]1C	inactive	inactive	inactive
C[C@@H]1CN([C@H](C)CO)C(=O)c2cccc(NS(=O)(=O)c3cn(C)cn3)c2O[C@@H]1CN(C)CC1CC1	inactive	inactive	inactive
Cc1ccc(S(=O)(=O)Nc2ccc3c(c2)C(=O)N(C)[C@H]2CC[C@H](CC(=O)NCCc4ccncc4)O[C@H]2CO3)cc1	inactive	inactive	inactive
Cc1noc(C)c1S(=O)(=O)Nc1ccc2c(c1)CC(=O)N([C@H](C)CO)C[C@H](C)[C@@H](CN(C)S(=O)(=O)c1ccc(F)cc1)O2	inactive	inactive	inactive
C[C@@H](O)/C=C/c1cccc[n+]1C	inactive	inactive	inactive
C[C@@H]1CN([C@@H](C)CO)C(=O)Cc2cc(NC(=O)Cc3cn(C)c4ccccc34)ccc2O[C@H]1CN(C)Cc1ccc(C(=O)Nc2ccccc2N)cc1	inactive	inactive	inactive
C[C@@H]1CN([C@H](C)CO)C(=O)c2cc(NC(=O)Nc3ccc4c(c3)OCO4)ccc2O[C@H]1CN(C)S(C)(=O)=O	inactive	inactive	inactive
C[C@@H]1CCCCO[C@H](CN(C)Cc2ccc(Cl)c(Cl)c2)[C@H](C)CN([C@@H](C)CO)C(=O)c2cc(NC(=O)Nc3ccc4c(c3)OCO4)ccc2O1	active	active	inactive
C[C@@H]1CN([C@H](C)CO)C(=O)c2cc(-c3ccc(C(=O)N(C)C)cc3)cnc2O[C@@H]1CN(C)C(=O)c1ccncc1	inactive	inactive	inactive
O=C(C[C@H]1CC[C@@H]2[C@H](COC[C@H](O)CN2C(=O)Nc2ccc(Cl)cc2)O1)NCCc1ccncc1	inactive	inactive	inactive
COc1ccc2c3c(n(c2c1)C)[C@@H](CO)N(C[C@]13CCN(CC1)C(=O)c1ccccn1)C(=O)c1ccccn1	inactive	inactive	inactive
CC(C)NC(=O)N(C)C[C@@H]1Oc2c(NC(=O)Nc3ccc4c(c3)OCO4)cccc2C(=O)N([C@H](C)CO)C[C@@H]1C	inactive	inactive	inactive
CC(C)(C)NCCCCOc1ccc(Cl)cc1C(C)(C)C	inactive	active	inactive
C[C@H]1CCCCO[C@H](CN(C)C(=O)Nc2ccc(F)cc2)[C@@H](C)CN([C@@H](C)CO)C(=O)c2cc(NS(=O)(=O)c3ccc(Cl)cc3)ccc2O1	inactive	active	inactive
CCCC1CCC(c2ccc(OC(=O)c3cccnc3)cc2)CC1 (configuration not stated)	inactive	inactive	inactive
C[C@@H](O)CCCCn1c(=O)c2c(ncn2C)n(C)c1=O	inactive	inactive	inactive
CCOC(=O)Cc1nnc(CC(=O)OCC)[nH]1	inactive	inactive	inactive
C[C@@H]1CCCCO[C@@H](CN(C)C(=O)CCC(F)(F)F)[C@@H](C)CN([C@@H](C)CO)C(=O)c2cc(NS(=O)(=O)c3ccccc3)ccc2O1	inactive	inactive	inactive
O=C(N[C@@H]1CC[C@H](CCn2cc(C3(O)CCCC3)nn2)O[C@H]1CO)C1CCOCC1	inactive	inactive	inactive
Cc1noc(C)c1NC(=O)N(C)C[C@@H]1Oc2ccc(NS(C)(=O)=O)cc2CC(=O)N([C@@H](C)CO)C[C@@H]1C	inactive	inactive	inactive
C[C@H]1CN([C@@H](C)CO)C(=O)c2cc(NC(=O)C3CCCCC3)ccc2O[C@H]1CN(C)Cc1ccc(C(=O)Nc2ccccc2N)cc1	inactive	inactive	inactive
CC(=O)NCCCC[C@@H]1NC(=O)[C@H]2C[C@@H](C(=O)NCCCCCNC(=O)CS)[C@@H](c3ccc(O)cc3)N2C1=O	inactive	inactive	inactive
O=C(NCCN1CCOCC1)[C@]1(Cc2ccccc2)N=C(c2ccc(OCCCO)cc2)O[C@@H]1c1ccccc1	inactive	inactive	inactive
Cc1ccc(S(=O)(=O)N(C)C[C@H]2Oc3ccc(NC(=O)Cn4cnnn4)cc3C(=O)N([C@@H](C)CO)C[C@H]2C)cc1	inactive	inactive	inactive
C[C@@H]1CN([C@H](C)CO)C(=O)c2cccc(NC(=O)CCCCCC(=O)Nc3ccccc3N)c2O[C@@H]1CN(C)C(=O)Nc1ccccc1	inactive	inactive	inactive
C[C@@H]1CCCCO[C@@H](CN(C)C(=O)NC2CCCCC2)[C@@H](C)CN([C@@H](C)CO)C(=O)c2cc(NC(=O)Nc3ccc(C(F)(F)F)cc3)ccc2O1	inactive	inactive	inactive
